# PubChem BioAssay AID485297 (National Center for Advancing Translational Sciences (NCATS), 2010)
# Among all 320,000 compounds or so, about 9,100 (2.8%) were called active. This list was built around the results that the source calls inconclusive (neither active nor inactive); the mix of calls is not that of the screen. Calls follow the shape of the dose curve; as a rule, active = well fitted activation curve with a large enough effect; inconclusive = small, poorly fitted or top-dose-only effect; inactive = no such curve, though single readings can be large or run the other way. No potency is given beside an inconclusive call; the fits are too rough.
# Assay: qHTS Assay for Rab9 Promoter Activators; also: nearly all actives have a fitted effect of over 60% in size; as to activation, negative = inhibition: % of control where 0% means no effect
# Details: Huh7 Rab9 promoter-luciferase reporter, luminescence, 24 h; series mostly up to 9.22 µM; activation, negative = inhibition: at the top concentration
# Procedure, shortened: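 Measured in stably transfected Huh7 cells bearing a Rab9 promoter–luciferase construct: 24 h compound treatment at 37 °C, followed by luminescence detection.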
# Potency is read from the fitted curve at half-maximal effect; tags tell the direction and shape of the fitted curve.
Compound,"activation, negative = inhibition",Potency
COc1cc(C(=O)NCc2ccc(S(N)(=O)=O)cc2)ccc1OCC(=O)N1CCOCC1,inactive: 2.16%,–
N/C(=N\OC(=O)COc1ccccc1Cl)c1ccccn1,–,active: 2510 nM
O=[N+]([O-])c1ccc(-c2cn(-c3ccccc3F)c(=S)[nH]2)cc1,–,active: 1410 nM
COc1ccc(OC)c(S(=O)(=O)N(C)CC(=O)N2CCN(c3cccc(Cl)c3)CC2)c1,–,"inconclusive [activator, single point]"
Cc1ccc2nc(-c3ccc(N)cc3)sc2c1,–,active: 224 nM
N#CC(=C1CCCC1)c1nc(-c2ccccc2)cs1,–,"inconclusive [activator, single point]"
Cc1cc(C)cc(NC(=O)N2CCc3ccccc3C2)c1,–,"inconclusive [activator, partial curve]"
CCCCc1ccc(NC(=O)N2CCNC(=O)C2CC(=O)Nc2ccsc2C(=O)OC)cc1 (stereo unspecified),inactive: -1.7%,–
Cc1cc(=O)[nH]c2nnc(-c3ccc(Cl)cc3)n12,–,"inconclusive [activator, partial curve]"
O=C(CSCc1ccccc1)Nc1ccc(Cl)cn1,–,"inconclusive [activator, single point]"
CC(=O)c1ccc(NC(=O)Nc2ccc([N+](=O)[O-])cc2)cc1,inactive: 27%,–
CCOC(=O)Cn1nc(NC(=O)c2ccc(C(=O)OC)cc2)cc1C,inactive: 16.6%,–
CN(Cc1ccccc1)C(=O)CN(c1ccccc1Cl)S(C)(=O)=O,inactive: 2.23%,–
CCN(CC)c1ccc2cc(-c3nc4ccccc4[nH]3)c(=O)oc2c1,–,active: 100 nM
COc1cccc(CN(C(=O)c2cc3ccccc3oc2=O)C2CCS(=O)(=O)C2)c1 (stereo unspecified),inactive: 19.9%,–
O=C(Nc1ccccc1)c1nc2ccccc2s1,–,active: 2510 nM
CCOc1cccc(NC(=O)CC#N)c1,inactive: -2.84%,–
CC(=O)Oc1ccccc1-c1nc(/C=C/c2ccccc2)no1,–,"inconclusive [activator, single point]"
COc1ccc2nc(NC(=O)CSC3=NCCS3)sc2c1,–,"inconclusive [activator, partial curve]"
CCN(CC)c1ccc(NC(=O)c2ccco2)cc1,–,"inconclusive [activator, full curve]"
Cc1ccc2nc(-c3cccnc3SCC(=O)N3c4ccccc4CC3C)[nH]c2c1 (stereo unspecified),–,"inconclusive [activator, single point]"

Compound,"activation, negative = inhibition",Potency
Cc1ccccc1OCC1Cc2c(nc(N)c(C#N)c2N)O1 (stereo unspecified),–,"inconclusive [activator, partial curve]"
O=C(O)c1cccc(NC(=S)N/N=C/c2ccccn2)c1,–,active: 316 nM
CC(C)(C)c1ccc(C(=O)O/N=C(\N)c2ccccn2)cc1,inactive: -24%,–
CC(CN1CCCC1)C(=O)NN (stereo unspecified),inactive: -3.94%,–
CCc1cn(C2CC(O)C(CO)O2)c(=O)[nH]c1=O (stereo unspecified),inactive: -2.6%,–
O=C(c1ccccc1)c1ccc2nc(N3CCN(C(=O)c4ccco4)CC3)c3nncn3c2c1,inactive: 1.64%,–
COc1ccc(C2CC(c3ccccc3OC(C)=O)=NN2C(C)=O)cc1 (stereo unspecified),–,"inconclusive [activator, single point]"
O=C(N/N=C/c1ccco1)c1cc(C2CC2)[nH]n1,–,"inconclusive [activator, partial curve]"
CCC(=O)N1CCN(c2nc3ccc(Br)cc3s2)CC1,–,"inconclusive [activator, partial curve]"
Cc1ccnc(NC(=O)CCCNC(=O)c2ccc(Cl)cc2)c1,–,"inconclusive [activator, single point]"
CC12CCC(C(=O)NC(c3ccccc3)c3ccccc3)(OC1=O)C2(C)C (stereo unspecified),inactive: 2.12%,–
CCCC#Cc1ccc2c(c1)COc1c3ccccc3nn1-2,–,active: 562 nM
Cc1ccc(Nc2nc(CSc3nnc(-c4ccc(F)cc4)n3C)cs2)cc1,–,"inconclusive [activator, single point]"
CCc1ccc2c(COC(=O)c3n[nH]c4ccccc34)cc(=O)oc2c1,–,"inconclusive [activator, single point]"
CCOc1ccc(/C=N/NC(=O)c2[nH]ncc2Br)c(O)c1,–,"inconclusive [activator, full curve]"
c1ccc(-n2ncc3c(N4CCCCC4)ncnc32)cc1,–,"inconclusive [activator, partial curve, poor fit]"
CCc1ccc(NC(=S)Nc2cccc(OC)c2)cc1,inactive: 2.42%,–
Cc1ccc(/C=c2/sc3n(c2=O)CCCN=3)o1,–,active: 2820 nM
Cc1cc(=O)oc2cc(NC(=O)c3cc4ccccc4o3)ccc12,inactive: 21.2%,–
Cc1cc(Cl)cc2c(N=Nc3ccccc3C(=O)O)c(O)[nH]c12,–,"inconclusive [activator, partial curve]"
O=C(NNC(=O)c1ccccc1F)c1cccc(-n2cccc2)c1,–,"inconclusive [activator, partial curve]"

Compound,"activation, negative = inhibition",Potency
Clc1ccc(-c2nnc(-c3ccccc3Cl)o2)cc1,–,active: 447 nM
O=C(/C=C/c1ccc(Cl)cc1Cl)N1CCc2ccccc21,–,active: 794 nM
Cc1cccnc1NC(=S)NC(=O)c1cncc(Br)c1,–,"inconclusive [activator, single point]"
Cc1cc(C(=O)Nc2ccccc2C(=O)O)oc1C,inactive: 7.64%,–
CCOc1ccc(OCC(=O)Nc2nccs2)cc1,–,"inconclusive [activator, full curve]"
NC(=O)C1CCN(c2nc(-c3ccc4ccccc4c3)cs2)CC1,–,"inconclusive [activator, partial curve]"
C=CCn1c(N/N=C/c2ccc(O)cc2)nc2ccccc2c1=O,inactive: 29.8%,–
COC(=O)c1ccc(N2CCN(c3ccccc3)CC2)nc1,–,"inconclusive [activator, single point]"
CCC(=O)n1nc(-c2ccc(OC)cc2)nc1SC,–,"inconclusive [activator, single point]"
Cc1onc(-c2ccccc2)c1C(=O)N=C(N)c1ccc(C(F)(F)F)cc1,inactive: -6.85%,–
Cc1ccc(C(=O)Oc2oc(-c3ccco3)nc2C=Nc2ccccc2)cc1,–,"inconclusive [activator, partial curve]"
Cc1ccc(C)c(NC(=O)C(C)N2C(=O)c3ccccc3C2=O)c1 (stereo unspecified),inactive: -0.0966%,–
COc1ccc(/C=N/NC(=S)Nc2ccccc2)cc1COc1cccc(C)c1C,inactive: -10.5%,–
CN1C(=O)/C(=C/C=C2\SCCN2C)OC1=S,–,"inconclusive [activator, partial curve]"
CCC(C)NC(=O)c1cc(-c2ccccc2O)on1 (stereo unspecified),–,"inconclusive [activator, partial curve]"
CCOC(=O)c1cc2c(ccn2C)n1CC(=O)N1C(C)CCCC1C (stereo unspecified),inactive: 0.165%,–
CC(=O)c1ccc(NC(=S)NC(=O)CC(C)C)cc1,–,"inconclusive [activator, single point]"
O=C(Nc1ccccc1F)c1ccc2c(c1)OCO2,–,active: 2820 nM
Clc1ccc(SCc2cn3ccccc3n2)cc1,–,active: 2510 nM
